Measurements as given in the supplement of paper PMC11417369.
± gives the standard deviation of the averaged measurements. The list shows a part of the results.

test system: PfAP2-EXP AP2 domain (GST-tagged); experiment: gcPBM binding intensity (ln(normalized median fluorescence intensity)); higher = stronger DNA binding
In short: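 An Agilent 4 × 180k array carrying primer-extended double-stranded 36-bp intergenic genomic probes and negative controls received GST-tagged P. falciparum DNA-binding domains expressed in E. coli, about 25 μg on average, for 1 h. The binding buffer contained 1× PBS, 1% milk, 0.2 mg/ml BSA, 0.5% salmon testes DNA and 0.03% Triton X-100. Binding intensity is the top Masliner-normalised natural-log median intensity across replicate spots of either probe orientation, read after Alexa488 anti-GST antibody staining and a 488 nm scan.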

Sequence	gcPBM binding intensity (ln)
TACTTTATATTATATATATATATATATATATATATA [CACACA_negctrl_site1765]	10.1 ± 0.29
AAAAATAACATATAAACACACATATATATATATATA [CACACA_site3802]	10.1 ± 0.49
TACATAAAATATATCACACATATAATATATATATAT [CACACA_site5834]	9.54 ± 0.16
AAAAAAAAAAAAAAATATAAATATATATATATATAT [GTGCAC_negctrl_site28]	10 ± 0.28
TATGTATTAAATTTTACACACATGATTCTCTATATA [CACACA_site2298]	8.55 ± 0.4
AAACGAACATATAAATGTACATATATATACATATAT [XGTACX_site8086]	8.46 ± 0.5
AATTAAATATTATAAACACACATATATATTATTTTT [CACACA_site865]	8.15 ± 0.4
TACAAAAAAAATGTATTTAGGACATATATATGTTTA [XGTACX_negctrl_site455]	8.1 ± 0.38
ATTGTAAATATAGAAGTGCAAAAGGGTATGAAATGA	9.31 ± 0.36
AGCTATATAAATAATACATGCATTGTTCAGGTATTT [TGCATGCA_site964]	8.76 ± 0.28
ATTTATAATATTCAAGTGCATATATATTTTTTACTT	8.77 ± 0.25
TAGTTCCTCAAAAATTTCCTTTGTCATTTTATTCAC [GTGCAC_negctrl_site20]	8.55 ± 0.57
TACATAAATTAATAGTCACACACGTATTTTTTATAT [CACACA_site8806]	8.36 ± 0.3
GTTATACAAAATAATACATGCATGTCCTACATATAT [TGCATGCA_site320]	9.37 ± 0.38
TAAAGAAATTCTTCATGTACTTATTATTTCTCTTTT [XGTACX_site6817]	8.64 ± 0.6
TATGGAATAAATTTATCCATACATCTTATAACATAT [XGTACX_negctrl_site500]	8.38 ± 0.45
AGAAAGATGCAAGAAACATGCAAAAAAAAAATTTCT [TGCATGCA_site725]	8.6 ± 0.51
TGTATTCCTTTTTATAGTACAATTTAAAAGTATAAA [XGTACX_site2045]	8.46 ± 0.3
GTACGTTTCTCCAGACTGCACTATACGACTCGTACA [GTGCAC_site9771]	9.15 ± 0.28

Sequence	gcPBM binding intensity (ln)
CACAAATATACAAATACACACAAATATACTCATATA [CACACA_site5339]	8.51 ± 0.41
ACATAATATATATATTGTACAAATATATTATTGTTA [XGTACX_site3385]	8.3 ± 0.3
AAAAAATTATATAATAATAGAACTATACATTTTATT [GTGCAC_negctrl_site645]	8.04 ± 0.38
AGCCACGGGTTATATACACACATAATCAAATAAAAT [CACACA_site6117]	8.64 ± 0.54
ATTTTTAATGGATAAGTGCATAATATTATGATGCAA	8.755 ± 0.021
TATGTAATAAAATATACACACAATATACTTATATAT [CACACA_site3682]	8.27 ± 0.35
ATTTAAAATAGAAGTTATATTTATATGGGTGAAAAA [GTGCAC_negctrl_site296]	8.41 ± 0.36
GGAATAACCGGACACACACACACATATATATATATA [CACACA_site5874]	10.2 ± 0.51
TCTAATCTGGAGAAAAGTACATAGTATCTGGTAACA [XGTACX_site2540]	8.53 ± 0.41
TTATTCATACAATATCGTACATATATATATATATAT [XGTACX_site1185]	10.2 ± 0.33
ATCTTATATATATGTGTGCACGTATATATAAGCAAT [GTGCAC_site9933]	8.68 ± 0.18
ATTATATATATATATACACACACATATATATATATA [CACACA_site8373]	10 ± 0.4
GTACACCTATAATATACACACAACAAATATGCACAT [CACACA_site6603]	8.92 ± 0.085
TTATAAATAAAAAGAGTGCAATTATAAATATATATA	8.735 ± 0.035
AAATAAAATATGAACAGTACTTTTGATATAACCATT [XGTACX_site1873]	8.68 ± 0.48
AAAAAAATACAAATATGTACACATATATATTTAAAA [XGTACX_site4729]	8.28 ± 0.22
CAATTTATAAAGAAAACACACATATACCTATATACA [CACACA_site6710]	8.66 ± 0.35
TACACGCATAAACACACACACACACCCATATATATA [CACACA_site8114]	8.79 ± 0.35
TTTATATTTAAAGAAACATGCATTTATCATATATAC [TGCATGCA_site173]	8.54 ± 0.33

Sequence	gcPBM binding intensity (ln)
AAAAAAATAAAATACAAAATGGCTATACAAAATAAA [GTGCAC_negctrl_site535]	8.73 ± 0.47
TTTGTTGACGAACACACACACATACATATTTATATA [CACACA_site7141]	8.63 ± 0.37
TCTATAATATTTTTCACACACCATTTCCTTAAACAC [CACACA_site6747]	8.7 ± 0.53
ATTACATATGTCGCTTGTACGCATAATTTTTTTATA [XGTACX_site5782]	8.97 ± 0.45
ATTTTTTTATTTTGAAGTACATAAACTTTATATATA [XGTACX_site1746]	8.5 ± 0.35
ATTTAAAAAAAAAGACGTACATTTATATAGAATCCT [XGTACX_site6457]	8.55 ± 0.18
TAATTTTTATTCAGTTCACACACGCTTTAATATTAT [CACACA_site9147]	8.69 ± 0.47
ATAAATTTACATTTTTTTTTTTTTTTTTTTTTTTTT [GTGCAC_negctrl_site689]	9.07 ± 0.014
GTATAGTACAAATAAGTGCATATAAAAGAAATACAG	9.17 ± 0.3
AAAAAATATACATATTGTACATTTTTTATTAACACA [XGTACX_site6415]	8.27 ± 0.39
ATTACCAAAAAAAGGTGTACAAATATAATTATGAAA [XGTACX_site44]	8.79 ± 0.49
ATTTTTTTTCGTAATTGTTCTTAATGTTGAATTATA [CACACA_negctrl_site1135]	8.73 ± 0.5
TTTTCCTTTCACAATGGTACACAAATATACATGCAA [XGTACX_site7244]	9.1 ± 0.29
TAGTAATATGTATCCATACACACATACATTTTATTT [CACACA_site873]	8.52 ± 0.41
AAAAAAGAAAAGAAATGTACAGAGCTTATCTTTTTA [XGTACX_site5677]	8.65 ± 0.73
TTTTTTAATTTTACATGTACATACAGGTTTTTTTTT [XGTACX_site4539]	8.8 ± 0.41
TTATTCCTATTTGGATGTACATTTTAATATAAACAT [XGTACX_site4386]	8.57 ± 0.4
TTCAATTTTACATGTAGTACATAAATTATACACAAA [XGTACX_site4946]	8.64 ± 0.3
ATTAATAAATAAATGACACACACACCCACAAAAAAA [CACACA_site8839]	8.99 ± 0.45
